Measurements as given in PubChem BioAssay AID504466 (National Center for Advancing Translational Sciences (NCATS), 2011).
Screen size: about 330,000 compounds; about 4,200 (1.3%) were called active. The inconclusive results got no clear call from the source; some entries with a clear call stand among them for comparison. The call rests on the fitted dose curve; in most records, active means well fitted activation curve with a large enough effect; inconclusive means small, poorly fitted or top-dose-only effect; inactive means no such curve, though single readings can be large or run the other way. Where the call is inconclusive, the potency comes from a doubtful curve fit.

Assay: qHTS screen for small molecules that induce genotoxicity in human embryonic kidney (HEK293T) cells expressing luciferase-tagged ELG1; further: nearly all actives have a fitted effect of over 60% in size; on activity change, positive = activation: % of control where 0% means no effect
Details: HEK293T ELG1-luciferase reporter, luminescence, 16 h; series mostly up to 46 µM; activity change, positive = activation: at the top concentration
Method in brief: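 HEK293T cells expressing luciferase-tagged ELG1 were exposed to compound or DMSO vehicle for 16 hr at 37 °C and 5% CO2. Luciferase activity was then measured with ONE-Glo after 30 min at room temperature.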
Potency means the concentration at half of the fitted maximal effect; tags describe the fitted curve by direction and shape.

Row | Structure (SMILES) | activity change, positive = activation | Potency
1 | CN(CC(=O)Nc1ccc(F)cc1)C(=O)CN1C(=O)c2ccccc2C1=O | inactive: 1.87% | –
2 | Cc1ccc2c(c1)[C@H]1[C@H](CO2)[C@H](c2ccccc2)[C@]2(C)C(=O)Nc3cc(Cl)ccc3C(=O)N12 | inactive: 2.82% | –
3 | Cc1c(/C=N/O)sc2ccccc12 | inactive: 1.4% | –
4 | CC(=O)/C(N=Nc1ccc2c(c1)OCO2)=C(\C)O | – | inconclusive: 14.6 µM [activator, partial curve]
5 | CCCCNC(=O)COc1ccccc1[N+](=O)[O-] | – | inconclusive: 18.4 µM [activator, partial curve, poor fit]
6 | Cc1cc(C(=O)COC(=O)c2nccnc2N)c(C)n1C | – | active: 6.51 µM
7 | O=C(Nc1ccc2ccccc2n1)c1ccccc1 | – | inconclusive: 2.06 µM [activator, full curve]
8 | CN(C(=O)c1ccc(NC(=O)Cc2cccc(NC(=O)C3CCN(C(=O)C4CCCC4)CC3)c2)cc1)C1CCCC1 | inactive: -0.0132% | –
9 | CC(C)c1ccc(NCCC(=O)c2cccs2)cc1 | – | inconclusive: 18.4 µM [activator, partial curve]
10 | CCC(C)c1ccc(NC(=S)NN2CCOCC2)cc1 (stereo unspecified) | – | inconclusive: 20.6 µM [activator, partial curve]
11 | O=C(NCCc1ccccc1)c1ccc2c(c1)OCO2 | – | inconclusive: 1 µM [activator, partial curve, poor fit]
12 | Cc1ccc(C(=O)O/N=C(\N)c2ccccn2)cc1Cl | – | inconclusive: 0.164 µM [activator, single point]
13 | CCOC(=O)c1cc2c(=O)n3ccccc3nc2n(CC2CCCO2)c1=NC(C)=O (stereo unspecified) | – | inconclusive: 18.4 µM [activator, partial curve, poor fit]
14 | CC(C)C(OC(=O)c1ccccc1)c1nccc2ccccc12 (stereo unspecified) | – | inconclusive: 23.1 µM [activator, single point]
15 | Cc1ccc(-n2nnnc2CNC(=O)c2ccc3c(c2)OCO3)cc1C | inactive: -2.67% | –
16 | O=Cc1c(-c2ccccc2)cc2oc3ccccc3cc1-2 | – | active: 3.66 µM
17 | COc1cccc(C(=O)N2CCCC(c3nc(-c4cccs4)no3)C2)c1 (stereo unspecified) | – | inconclusive: 20.6 µM [activator, single point]
18 | CCOc1ccc2nc(NC(=O)C3CCN(C(=O)c4ccco4)CC3)sc2c1 | – | inconclusive: 6.51 µM [activator, single point]
19 | O=C(c1cc(-c2ccc(Cl)c(Cl)c2)on1)N1CCCCC1 | – | inconclusive: 6.51 µM [activator, partial curve]
20 | O=C(Nc1ccc(F)cc1)C1CCCN1S(=O)(=O)c1cccc2nsnc12 (stereo unspecified) | – | inconclusive: 6.51 µM [activator, single point]
21 | COC(=O)Nc1nnc(-c2ccccc2Cl)s1 | – | active: 23.1 µM
22 | CC[C@]12CCCN3CCc4c(n(c5ccccc45)[C@@](O)(C(=O)OC)C1)[C@@H]32 | – | active: 16.4 µM
23 | Cc1ccccc1C(=O)Nc1ccc(S(=O)(=O)N2CCN(C)CC2)cc1 | inactive: -1.24% | –

Row | Structure (SMILES) | activity change, positive = activation | Potency
24 | CCOc1ccccc1NC(=O)c1oc2ccccc2c1NC(=O)C1CCCO1 (stereo unspecified) | inactive: -7.17% | –
25 | O=C(Nc1ccccc1)N1CCC(c2ccccc2)C1 (stereo unspecified) | – | inconclusive: 16.4 µM [activator, partial curve]
26 | O=C(/C=C/c1ccc2c(c1)OCO2)c1ccc[nH]1 | – | inconclusive: 16.4 µM [activator, partial curve]
27 | O=C1CCCC/C1=C\Nc1ccc(O)cc1 | – | inconclusive: 16.4 µM [activator, single point]
28 | Cc1cc(SC(C)C(=O)Nc2ncc(Cl)cc2Cl)nc2ccccc12 (stereo unspecified) | inactive: -5.08% | –
29 | O=Cc1ccc(N2Cc3ccccc3C2)cc1 | – | inconclusive: 18.3 µM [activator, partial curve, poor fit]
30 | COC(=O)c1ccccc1NC(=O)CSc1nncn1-c1ccccn1 | – | inconclusive: 4.61 µM [activator, partial curve, poor fit]
31 | CC(=O)c1cccc(NC(=O)COC(=O)c2ccc(S(C)(=O)=O)c([N+](=O)[O-])c2)c1 | – | inconclusive: 29.1 µM [activator, single point]
32 | CC1CCN(c2c([N+](=O)[O-])nn(-c3ccc4c(c3)OCCO4)[n+]2[O-])CC1 | – | inconclusive: 23.1 µM [activator, partial curve]
33 | Cc1ccc(S(=O)(=O)N2CCN(CCOc3c(Cl)cccc3Cl)CC2)cc1C | inactive: -3.9% | –
34 | CCOC(=O)C(=O)Nc1cc(C)on1 | – | inconclusive: 5.8 µM [activator, partial curve]
35 | CCC(C)c1ccc(NC(=O)C2=CC=CN3CCS(=O)(=O)N=C23)cc1 (stereo unspecified) | – | inconclusive: 18.3 µM [activator, partial curve, poor fit]
36 | COc1ccc(-c2cc(C(=O)O)nc3ccc4ccccc4c23)cc1OC | inactive: 4.65% | –
37 | C(=N\Nc1nc(-c2ccccc2)cs1)/c1cccnc1 | – | active: 5.17 µM
38 | Cc1ccccc1OCCOc1ccc([N+](=O)[O-])cc1/C=N/n1cnnc1 | – | inconclusive: 20.6 µM [activator, partial curve, poor fit]
39 | O=C(Nc1ccc(Cl)c([N+](=O)[O-])c1)c1ccc2c(c1)OCCO2 | – | inconclusive: 1.83 µM [activator, full curve, poor fit]
40 | Cc1ccc(-c2nn(-c3ccccc3)cc2CO)o1 | – | inconclusive: 7.31 µM [activator, partial curve]
41 | Cn1c(N)c(C(=O)COC(=O)c2ncc(Cl)c(Cl)c2Cl)c(=O)n(C)c1=O | – | inconclusive: 18.3 µM [activator, single point]
42 | Cc1cccc(NC(=O)c2ccc3c(c2)OCCO3)n1 | – | inconclusive: 4.11 µM [activator, partial curve]
43 | O=C(/C=C/Nc1ccc(Oc2ccccc2Cl)cc1)c1ccco1 | – | inconclusive: 2.91 µM [activator, full curve]
44 | N#Cc1c(NC(=O)COC(=O)c2ccc(S(=O)(=O)N3CCCC3)cc2)sc2c1CCCCC2 | – | inconclusive: 20.6 µM [activator, partial curve, poor fit]
45 | CSc1ccccc1NC(=O)c1c(Br)cnn1C | inactive: 2.02% | –
46 | CC(=O)Nc1ccc(S(=O)(=O)N2CCN=C2SCc2ccc(C)cc2)cc1 | – | inconclusive: 20.6 µM [activator, partial curve, poor fit]
